Measurements as given in PubChem BioAssay AID1508642 (National Center for Advancing Translational Sciences (NCATS), 2021).
The campaign covered roughly 43,000 compounds. About 200 (0.47%) were called active. Inconclusive results (about 12%) are left out. Calls come from the whole dose curve; as a rule, active = well fitted cell-killing curve with a large enough effect; inconclusive = small, poorly fitted or top-dose-only effect, or effect the other way; inactive = flat fitted curve, though single readings scatter. The list shows a part of the results.

Test: Cell viability qHTS assay in S16 Pmp22-F2sN cells; note: nearly all actives have a fitted effect of over 65% in size
Conditions: S16 Pmp22-F2sN Schwann cells (luciferase reporters placed in the Pmp22 gene) viability, CellTiter-Glo, 24 h; series mostly up to 57.5 µM; activity change, negative = cytotoxicity: at the top concentration
In short: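 Rat S16 Schwann reporter line, 24 h treatment with library compounds delivered at 23 nL per well. Cell viability by CellTiter-Glo luminescence.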
% is set by controls: 0 for no effect and ±100 for the full control effect.

Compound	activity change, negative = cytotoxicity
COc1cc(/C=C(\C#N)c2nc3ccccc3c(=O)[nH]2)cc(OC)c1OC	inactive: 8.84%
Cc1ccc(-c2nc3ccccc3n3c(-c4ccccc4)c4c(=O)n(C)c(=O)n(C)c4c23)cc1	inactive: -0.928%
CCn1ccc2cc(S(=O)(=O)N3CCCN(C(=O)NCC(C)C)CC3)ccc21	inactive: 17.1%
COc1cc(OC)c(NC(=O)c2cc(CN3CCOCC3)on2)cc1Cl	inactive: 1.78%
COCCNC(=O)CCCn1c(=O)c2cc(OC)c(OC)cc2n(CC(=O)Nc2ccc(F)cc2)c1=O	inactive: -3.5%
O=C(COc1ccccc1Cl)Nc1ccc2oc(-c3ccccc3F)nc2c1	inactive: 7.7%
O=C(Nc1ccc(F)cc1F)c1cc(-c2ccccc2O)no1	inactive: -0.201%
Cc1ccc(NC(=O)Cn2c(=O)n(CCCCC(=O)NCCc3ccccc3)c(=O)c3ccccc32)c(C)c1	inactive: 8.7%
Cc1nn2c(=O)cc(COC(=O)c3ccc(NC(=O)C4CCCCC4)cc3)nc2s1	inactive: -20%
COc1cc(NC(=O)Cn2nc(C(F)(F)F)c3c2CCCC3)c(OC)cc1Cl	inactive: -0.739%
CCCCOC(=O)c1ccc(NC(=O)c2cc3c(=O)n4cccc(C)c4nc3n2C)cc1	inactive: 12.4%
CCOc1ccc(CNC(=O)c2ccc(-c3nc(CS(=O)(=O)c4ccccc4)c(C)o3)cc2)cc1	inactive: -18.4%
CCOC(=O)C1CCN(CCC(=O)Nc2ccc(Br)c(C)c2)CC1	inactive: 11.6%
O=C(CSc1nc(=O)[nH]c2c1CCCC2)Nc1ccccc1C(F)(F)F	inactive: 1.82%
Cc1nn2c(=O)cc(COC(=O)c3cccc(NC(=O)c4cccs4)c3)nc2s1	inactive: 2.54%
Cc1cccc(N(C)S(=O)(=O)c2cc3c(cc2Cl)NC(=O)CO3)c1	inactive: -1.82%
CCOc1ccc(NS(=O)(=O)c2ccc3[nH]c4c(c3c2)CCCC4)cc1	inactive: -16.4%
CCCSc1ncc(Cl)c(C(=O)Nc2sc3c(c2C(=O)NCCOC)CCCC3)n1	inactive: 1.52%
Cc1c(Cl)cccc1NC(=O)CSc1nc(=O)n(Cc2ccccn2)c2c1CCC2	inactive: -10.4%
COc1ccc(-c2cn3nc(N4CCC(C(=O)Nc5cccc(C)c5C)CC4)sc3n2)cc1	inactive: 1.3%
COc1ccc(N(CC(=O)N2CCN(c3cccc(C)c3C)CC2)S(=O)(=O)c2c(C)noc2C)cc1	inactive: 2.64%

Compound	activity change, negative = cytotoxicity
Cc1ccc(C(C)C)c(OCC(=O)N2CCC(c3nc4ccccc4o3)CC2)c1	inactive: -11.3%
COc1ccc(C(=O)N(Cc2ccc(C(C)C)cc2)C2CCS(=O)(=O)C2)cc1 (stereo unspecified)	inactive: -11.4%
Cc1nc2nc(SCC(=O)NCCc3ccccc3)nn2c(C)c1Cc1c(F)cccc1Cl	inactive: 25.2%
Cc1ccccc1CNS(=O)(=O)c1csc(C(N)=O)c1	inactive: 13.9%
Cc1nn(-c2ccc(N3CCOCC3)nn2)c(C)c1CCC(=O)NCc1ccc(OC(C)C)cc1	inactive: -0.448%
Cc1c(C2=CCN(S(=O)(=O)c3ccc(CC(C)C)cc3)CC2)c2ccccc2n1CC(=O)N1CCCC1	inactive: 2.61%
CCn1c(SCCOc2ccccc2F)nc2ccccc21	inactive: 3.49%
Cn1c(=O)nc2n(-c3ccc(Cl)c(Cl)c3)c3cc(Cl)ccc3cc-2c1=O	inactive: -1.15%
O=C(Nc1c(C(=O)Nc2ccc(F)cc2)oc2ccccc12)c1ccccc1F	inactive: 10.1%
Cc1ccc(C)c(NC(=O)CN2C(=O)COc3ccc(Cl)cc32)c1	inactive: 0.0443%
COc1ccccc1CNC(=O)C1CCCN(c2nnc(-n3c(C)ccc3C)s2)C1 (stereo unspecified)	inactive: 0.627%
CC1=C(C(=O)OCC2CCCCC2)C(c2ccccc2F)CC(=O)N1 (stereo unspecified)	inactive: 29.3%
CCOc1ccc(NC(=O)NCCc2c(C)nn(C)c2C)cc1	inactive: -10.3%
CC1CCc2nn(CC(=O)Nc3ccccc3Cl)cc2C1 (stereo unspecified)	inactive: 0.705%
CCc1ccc(-c2nc3c(c(SCc4ccccc4F)n2)Cc2c(CO)cnc(C)c2O3)cc1	inactive: 6.44%
Cc1cccc(N2CCN(C(=O)CN3CCSc4ccccc43)CC2C)c1 (stereo unspecified)	inactive: 2.2%
COc1ccc(NC(=O)C(=O)NCC(c2cccnc2)N2CCc3ccccc32)cc1OC (stereo unspecified)	inactive: -24.8%
CN(Cc1ccccc1)S(=O)(=O)c1ccc(-c2cnc(C3CC3)o2)cc1	inactive: 5.69%
Cc1ccc(NC(=O)C(C)Sc2nc(=O)cc(N)n2-c2cccc(C)c2)cc1 (stereo unspecified)	inactive: 1.62%
COc1cccc(S(=O)(=O)N2CCN(Cc3ccc4c(c3)OCO4)CC2)c1	inactive: 8.65%
O=c1c2oc3ccccc3c2n(Cc2ccccc2Cl)c(=O)n1Cc1ccco1	inactive: 3.47%

Compound	activity change, negative = cytotoxicity
COc1ccc(CN(Cc2ccco2)c2cnc(S(C)(=O)=O)nc2C(=O)Nc2ccc(C)c(Cl)c2)cc1	inactive: 6.99%
CC(C)Oc1ccc(C(=O)N2CCN(CCc3ccccn3)CC2)cc1	inactive: 6.84%
Cc1ccc(NC(=O)c2cnn3c(C(F)F)cc(-c4ccccc4)nc23)cc1F	inactive: 20.1%
CCCn1c(SCc2nc(-c3ccc(OC)c(OC)c3)no2)nnc1-c1ccccc1	inactive: -23.6%
CCOc1ccc(-c2nc(Cn3c(=O)cc(-c4ccccc4)c4c(C)nn(C)c43)c(C)o2)cc1	inactive: 5.69%
CCOc1ccc(NC(=O)CN(c2ccc(CC)cc2)S(=O)(=O)c2c(C)noc2C)cc1	inactive: -1.75%
Cc1ccc(CNC(=O)C2CCN(S(=O)(=O)c3c(C)noc3/C=C/c3cccs3)CC2)cc1	inactive: 13.3%
Cc1sc2ncn(CC(=O)N3CCN(c4ccc(F)cc4)CC3)c(=O)c2c1S(=O)(=O)N1CCC(C)CC1	inactive: -0.68%
Cc1ccc(CNC(=O)Cn2c(=O)cc(C(F)(F)F)c3c(C)nn(C)c32)cc1	inactive: 4.43%
COC(=O)C1=C(c2ccccc2)c2ccccc2S(=O)(=O)N1CC(=O)Nc1ccc(F)c(F)c1	inactive: -0.494%
CC(C)Oc1ccc(CNC(=O)c2ccc(CN3CC(=O)N4CCCCC4C3=O)cc2)cc1 (stereo unspecified)	inactive: 0.577%
Oc1c(C(c2ccc(Cl)cc2Cl)N2CCN(c3ccccc3)CC2)sc2nc(-c3ccco3)nn12 (stereo unspecified)	inactive: 9.65%
O=C(NCc1cccc(Cl)c1)c1ccc(NC(=O)N2CC3CCCN3c3ccccc32)cc1 (stereo unspecified)	inactive: -9.82%
CSc1ncc(C(=O)NCc2cccc(F)c2)c(-c2ccccc2)n1	inactive: 11.8%
O=C(CCS(=O)(=O)c1cc2c(cc1Cl)NC(=O)CO2)NCc1ccccc1Cl	inactive: 10.7%
COc1ccc(NC(=O)CN2CCCN(Cc3ccc(Cl)cc3)S2(=O)=O)cc1Cl	inactive: 8.38%
COc1ccc(CNC(=O)c2cnc3sc(N4CCCCCC4)nn3c2=O)cc1	inactive: -2.13%
CCOC(=O)c1cnc2ccccc2c1NCCc1ccc(OC)c(OC)c1	inactive: -8.74%
CCN1c2ccccc2-c2nc(SCC(=O)NCc3ccc(C)cc3)ncc2S1(=O)=O	inactive: 7.46%
